# Test results reported in the BET-seq Pho4 binding data (Le et al. 2018).
# Some of the results follow. The energies were worked out here from pooled read counts, against the library average; single values are noisy.
# Molecular target: T1, Pho4 (S. cerevisiae) (UniProt P07270)
# T1 sequence: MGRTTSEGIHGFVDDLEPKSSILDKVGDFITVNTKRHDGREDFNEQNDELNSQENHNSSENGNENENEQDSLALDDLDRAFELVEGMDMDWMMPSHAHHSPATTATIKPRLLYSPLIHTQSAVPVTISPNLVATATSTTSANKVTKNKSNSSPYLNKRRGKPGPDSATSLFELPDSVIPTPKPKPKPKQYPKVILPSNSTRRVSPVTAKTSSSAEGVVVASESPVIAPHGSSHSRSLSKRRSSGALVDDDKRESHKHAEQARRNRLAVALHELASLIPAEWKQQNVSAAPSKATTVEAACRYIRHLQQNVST
# Assay: relative binding free energy (BET-seq); higher = weaker binding
# Conditions: reference: library average
row,Sequence,relative binding free energy [kcal/mol]
1,GCGCGCACGTGCGGTG,-0.13
2,ATTGGCACGTGAGGCG,0.02
3,CCGGGCACGTGTGAGT,-0.09
4,GAGTACACGTGGTGGA,0
5,ATAGTCACGTGGGCCG,-0.06
6,GCAATCACGTGTGTGG,0.09
7,ATATGCACGTGGGCCT,-0.13
8,TTATTCACGTGGAAGT,0.4
9,TTTTACACGTGCCGGT,0.11
10,AATATCACGTGTTCGT,0.15
11,ATGGTCACGTGTATAA,0.18
12,GTGTTCACGTGGGTGG,0.14
13,AATTTCACGTGATGTA,0.36
14,AGTTACACGTGTAGAG,0.09
15,ATGATCACGTGTAGTG,0.06
16,AGTGACACGTGGGTCG,-0.12
17,TTGCTCACGTGCTGGG,0.16
18,GTATACACGTGTTCTG,0
19,GAATGCACGTGGGACG,-0.01
20,GGGAGCACGTGGGTTC,-0.09
21,TGGAACACGTGAGGCT,0.25
22,ATAATCACGTGATTTA,0.18
23,ATGATCACGTGATGGG,0.39
24,TACTGCACGTGTGAGG,0.07
25,GTGTTCACGTGGGTGT,0.22
26,TGGTGCACGTGGTTCC,-0.06

row,Sequence,relative binding free energy [kcal/mol]
1,GCGGTCACGTGGTCGT,0.08
2,GCGGTCACGTGGCGGG,-0.03
3,TTAGTCACGTGCGAAG,0.06
4,CGGTACACGTGGGCTG,-0.09
5,GGCTCCACGTGGGGTT,-0.21
6,TTCACCACGTGGGGTT,-0.14
7,CAGTACACGTGAGGGG,0.35
8,GCGGCCACGTGGGGGG,-0.25
9,CGAGGCACGTGCTTGG,-0.14
10,TTGGGCACGTGCGTAT,-0.2
11,CTGTGCACGTGTAATA,0.12
12,GCAAGCACGTGGTGGT,-0.12
13,GTTTCCACGTGAGGGG,0.34
14,AGGGTCACGTGTGCTT,0.07
15,ATTGGCACGTGTCTGT,-0.18
16,AAGGGCACGTGGTTCG,-0.13
17,TATGCCACGTGGTTAT,-0.21
18,CTGGTCACGTGTGGAC,0.36
19,ATAGGCACGTGAAATG,0.15
20,GGAGGCACGTGGGGGT,-0.16
21,TAGTTCACGTGGCGGA,0.21
22,GTTTCCACGTGTGTTG,0.28
23,GGAATCACGTGTAGTA,0.14
24,GGGTTCACGTGGGCGC,0.16
25,TGATTCACGTGAATGG,0.36
26,AAATTCACGTGGATTT,0.28

row,Sequence,relative binding free energy [kcal/mol]
1,AGTGTCACGTGATATT,0.16
2,GGTTTCACGTGATAAA,0.29
3,GGGATCACGTGAGTCT,0.49
4,GCTAGCACGTGTGTAG,-0.05
5,TGCGGCACGTGGGCCT,-0.31
6,GGTGTCACGTGCTATT,0.11
7,ATGGACACGTGTGGGG,0.09
8,GCTTTCACGTGGAGGT,0.24
9,GCGGTCACGTGAGGGG,0.26
10,TGTGGCACGTGTGACT,0.06
11,ATATTCACGTGCTTTG,0.3
12,TTGGTCACGTGTGGAA,0.24
13,TTTTCCACGTGAAGGT,0.46
14,TATTACACGTGATCGT,0.03
15,TGCGGCACGTGAAGTG,0.09
16,GTTCTCACGTGCGTTT,0.43
17,TTTTGCACGTGTATAC,-0.02
18,TTTTTCACGTGCAGGG,0.29
19,AGACTCACGTGGAGGT,0.18
20,TGGTGCACGTGATGGC,0.11
21,TGTGCCACGTGGACGT,0.06
22,TGGTGCACGTGTTCTT,-0.04
23,TCATCCACGTGATTTG,0.44
24,TGTGACACGTGGGTCT,-0.11
25,GGGTGCACGTGAGATG,0.35
26,GGCTACACGTGTGTGT,0.09

row,Sequence,relative binding free energy [kcal/mol]
1,TTGGTCACGTGGCACG,-0.05
2,AATTTCACGTGGTGGG,0.19
3,CGGTGCACGTGTGTAA,-0.08
4,GTTTGCACGTGTAAGT,0.27
5,TTATTCACGTGAAGGT,0.43
6,GGAGGCACGTGTGAGA,0.04
7,AAAGGCACGTGAGGTA,0.17
8,TTGGGCACGTGAGGGA,0.12
9,TTACGCACGTGGGCGT,-0.26
10,TATATCACGTGTATGG,0.05
11,ATGAACACGTGGAGTT,0.02
12,TGACACACGTGGGAGT,-0.17
13,CGTTTCACGTGGTGCT,0.11
14,GTGTACACGTGGTGTC,0.06
15,ATATTCACGTGGTTAT,0.11
16,GGTGTCACGTGTTCTT,0.13
17,AAGACCACGTGGGGGG,-0.22
18,AAAATCACGTGTGTTT,0.1
19,ATTATCACGTGATTTA,0.16
20,TTTGTCACGTGAGTAC,0.18
21,GGGGTCACGTGGGGCC,0.09
22,CTCGTCACGTGTGGGT,0.02
23,ATCTGCACGTGTGGGA,0.03
24,CAGTTCACGTGGGTTG,0.14
25,GGAGGCACGTGTTGGA,-0.05
26,TGGATCACGTGGGATC,0.15

row,Sequence,relative binding free energy [kcal/mol]
1,TGGTACACGTGCATGT,0.04
2,GGGAGCACGTGCGCGG,-0.25
3,TAGGCCACGTGTTTTT,-0.02
4,TTATGCACGTGCGCTG,-0.06
5,TTTGTCACGTGCTGTT,0.1
6,TCAGTCACGTGCGTGT,-0.06
7,GAGTACACGTGCGTGA,0.09
8,GGACACACGTGGCGGG,-0.08
9,ATTGTCACGTGGTGGC,0.07
10,AACGGCACGTGGGGCG,-0.28
11,AGGCGCACGTGGTAGA,-0.24
12,TGTGACACGTGAGTTT,0.09
13,TAGATCACGTGAATGG,0.39
14,AAAGTCACGTGTGGCG,0.09
15,TCGATCACGTGGGTTA,-0.05
16,GGGAGCACGTGTCAAG,0.03
17,ATCTACACGTGTGTGT,-0.04
18,CGAAACACGTGGGGTG,-0.23
19,AATAACACGTGTTATG,0.02
20,TTTGCCACGTGGCAGG,-0.15
21,GTAAACACGTGTTGTG,-0.08
22,TAGGACACGTGGTTAA,0.02
23,GGTAGCACGTGCAGAG,0.01
24,GATTTCACGTGGAGGG,0.34
25,GTTATCACGTGAAGGA,0.37
26,CAGGGCACGTGTTCGT,-0.1

row,Sequence,relative binding free energy [kcal/mol]
1,GGGATCACGTGCGAGG,0.23
2,TTGCTCACGTGTGTAT,0.22
3,CGGTTCACGTGCGTTA,0.28
4,CAAGGCACGTGATGTG,0.07
5,TCCTGCACGTGGTAGG,-0.08
6,GTTGGCACGTGTGGGT,0.12
7,CTAGGCACGTGAGTTG,0.21
8,TATTACACGTGAATTA,0.38
9,CATTACACGTGTGGGA,0.23
10,AGTTGCACGTGTGTAG,-0.08
11,TCGTTCACGTGAACTT,0.47
12,TTGTACACGTGACGGT,0.13
13,GGGGCCACGTGAGCTG,0.06
14,TTTGGCACGTGAATAC,0.19
15,GTTGTCACGTGATTAT,0.22
16,GATATCACGTGTATTT,0.21
17,TGGGGCACGTGTCATG,-0.12
18,AGGGTCACGTGGTTTC,0.05
19,TAGGGCACGTGATCTT,-0.04
20,TTAGTCACGTGTTTAT,0.15
21,GTTGGCACGTGACATG,-0.1
22,TGTAACACGTGCTGGG,-0.02
23,TTCTACACGTGGAGTG,0.05
24,CGTGCCACGTGTTTTA,0.07
25,GATTGCACGTGCCGTG,0.21
26,ATATACACGTGGTATT,-0.15

row,Sequence,relative binding free energy [kcal/mol]
1,ATGCGCACGTGAAAGG,0.17
2,GGGTTCACGTGCGAGT,0.25
3,TACGACACGTGTTTGT,0.09
4,GTATTCACGTGGAGCT,0.17
5,TTTAACACGTGGTGTT,-0.24
6,GGTGTCACGTGAAGGG,0.35
7,TACATCACGTGTTGGT,0.09
8,GATTTCACGTGTTGTC,0.3
9,TGTTTCACGTGTTATG,0.29
10,AAATACACGTGGAGTG,-0.05
11,TTCGCCACGTGGGTTG,-0.22
12,TAGGACACGTGGATAT,0.08
13,GTTTACACGTGACGGT,0.31
14,AGGTTCACGTGAGGGA,0.36
15,TGACGCACGTGGGGGA,-0.27
16,ATGAGCACGTGTGGCG,0.02
17,GATGGCACGTGACGTG,-0.02
18,ATTTGCACGTGTTTCT,0.08
19,GGCCTCACGTGCGTGT,0.17
20,TGTGTCACGTGTCTGC,-0.01
21,CGTACCACGTGGGGGG,-0.29
22,TGGGGCACGTGGTGTC,-0.17
23,GAATGCACGTGTAGGT,0.02
24,AGTGGCACGTGGGCGC,-0.21
25,CTTGACACGTGTTCGT,-0.07
26,TTTTGCACGTGGTAGT,0.01

row,Sequence,relative binding free energy [kcal/mol]
1,GGGTCCACGTGATTTT,0.15
2,TAGTGCACGTGGTTGT,-0.06
3,GGCCTCACGTGTAGGG,0.04
4,TAATGCACGTGGTCTG,-0.15
5,TGTTACACGTGTTGCT,0.05
6,TGTTGCACGTGGCCGA,-0.09
7,TCTAGCACGTGAGGTG,0.1
8,GTTCGCACGTGGAAGG,0.11
9,TCGTCCACGTGTGGTG,0.09
10,GTTGGCACGTGTCTTC,0.02
11,GGGTGCACGTGGCAGT,-0.07
12,TAGTTCACGTGGGCAT,0.05
13,GTGTTCACGTGTTCAT,0.23
14,GGATTCACGTGTTTGC,0.33
15,GTGGGCACGTGTGTTT,0.01
16,TATTCCACGTGTGAGT,0.08
17,GGTTCCACGTGTGGGT,0.15
18,GGTTGCACGTGGAATG,0.16
19,GAGATCACGTGTGGCG,0.24
20,GATGTCACGTGGGGCG,-0.01
21,TGGAGCACGTGTATCG,-0.11
22,GAGTGCACGTGTCTGG,0.03
23,TGAAACACGTGTGTTA,0.04
24,ATCGGCACGTGTTTGG,-0.02
25,GTGACCACGTGGCTGT,0.02
26,TGAGGCACGTGGGCGC,-0.26

row,Sequence,relative binding free energy [kcal/mol]
1,TTGATCACGTGGTAGT,0.14
2,AGGTGCACGTGGTTAA,-0.09
3,GGTTACACGTGAAGAG,0.31
4,AGCGACACGTGGTGGG,-0.04
5,GTATACACGTGGCGTT,-0.13
6,CTTCACACGTGGGTTG,-0.11
7,AGTCTCACGTGTTGTG,0.11
8,AGGGTCACGTGGTTCA,0.06
9,TTGGACACGTGGTCTT,0.02
10,GTTGACACGTGTGAGC,0.21
11,TTTAGCACGTGGTAAA,-0.17
12,GTTGACACGTGTGTCT,0.03
13,GGTTACACGTGGAAAT,0.21
14,TGCGCCACGTGCGGTG,-0.16
15,AGAGTCACGTGTAGTA,-0.01
16,CGGAGCACGTGTTTGT,-0.22
17,TATGTCACGTGTCGTG,0.11
18,TTTTGCACGTGAAGAA,0.26
19,TATTGCACGTGGTATT,-0.12
20,ATAGTCACGTGTTATT,0
21,CCTTTCACGTGGTGTG,0.08
22,TATGTCACGTGATGGT,0.22
